Assay results as given in ChEMBL document CHEMBL1201862, “PubChem BioAssay data set” (2004).
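Values below derive from 48-hour exposures of cells grown in 96-well plates, with endpoints linearly interpolated between the two concentrations bracketing the appropriate inhibition level. Here, GI50 denotes the concentration required for 50% inhibition of growth.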 Calls of active or inactive are those of the source. No stated cut-off is given here; in the data, active = GI50 up to about 1.1 µM and inactive = higher.

Each molecule was assayed on NCI-H322M (assay: DTP human tumour cell line panel, 48 h).

SMILES	GI50
CCN(CC)CCOC(c1ccccc1)c1ccccc1.CCOC(=O)Nc1ccc(S(=O)(=O)NCCCl)cc1.CCOC(=O)Nc1ccc(S(=O)(=O)NCCCl)cc1.Nc1ccc(C(=O)O)c(O)c1	inactive: > 100 µM
CN(C)/C=C/c1nnc([N+](=O)[O-])s1	inactive: 22.8 µM
CN1C(=O)C(/C=N/NC(=O)c2cccnc2)C(N)N(C)C1=O (stereo unspecified)	inactive: > 100 µM
Oc1cc(Cc2ccccc2)c(Cc2ccccc2)cc1O	inactive: > 10 µM
CSc1cc(-c2ccccn2)nc(-c2ccccn2)c1	active: 0.0621 µM
O=C(N/C=C1\C(=O)Oc2ccccc2C1=O)Nc1ccccc1	inactive: 42 µM
CC[P+](C)(C)CC	inactive: > 100 µM
Cc1ccc(S(=O)(=O)n2ccc(-c3ccc4ccn(S(=O)(=O)c5ccc(C)cc5)c4c3)c2)cc1	inactive: > 100 µM
Cn1c(O)c(C(=O)Nc2cccs2)c(=O)[nH]c1=S	inactive: 20.7 µM
O=C(O)CC/C(=N\Nc1nsc2ccccc12)c1ccc(Cl)cc1	inactive: 18.8 µM
[N-]=[N+]=NC12CC3C4CC5CC3C(C1)C(C5)C4C2	inactive: > 100 µM
c1ccc(-c2ccc(-c3ccc(C4=NCCN4)cc3)o2)cc1	inactive: 2.69 µM
Cc1ccc(Sc2ccccc2[N+](=O)[O-])cc1	inactive: 44.8 µM
C/C(=C\C(C)COCc1ccccc1)[C@H](COCc1ccccc1)OCc1ccccc1 (stereo partly specified)	inactive: > 100 µM
O=Cc1ccccc1B(O)O	inactive: 73.3 µM
COC(=O)C1=C(C(=O)OC)C23CC1C1C(C(=O)OC)=C(C(=O)OC)C12C1C=CC3C2C(=O)OC(=O)C21 (stereo unspecified)	inactive: 34.4 µM
COC(=O)c1ccccc1C1CN=NC12Cc1c(ccc(C)c1C)C2=O (stereo unspecified)	inactive: > 100 µM
COC(=O)C(Cc1nc2ccc(Cl)cc2nc1O)C(=O)C(=O)Nc1ccccc1[N+](=O)[O-] (stereo unspecified)	inactive: > 100 µM
N=C(N)N/N=C/c1c(-c2ccc(N)cc2)nc2sccn12	inactive: 20.7 µM
C=C(Cl)C(C)(Cl)CCC(Cl)C(C)(C)Cl (stereo unspecified)	inactive: > 100 µM
COc1cc(OC)cc(Oc2nc3ccccc3nc2C(=O)O)c1	inactive: > 100 µM
COC12C=CC(CC1)C(C)(C)C2=O (stereo unspecified)	inactive: > 100 µM
C[C@H](C(=O)N1C(=O)O[C@@H](c2ccccc2)[C@H]1C)[C@H](c1ccccc1)N(Cc1ccccc1)OC(=O)c1ccccc1	inactive: 15.5 µM

SMILES	GI50
Cc1cc(C[C@H]2O[C@@H]3OC(C)(C)O[C@@H]3[C@H]3OC(C)(C)O[C@H]32)c2ccccc2n1	inactive: > 100 µM
Brc1ccc2c(c1)C1(c3cc(Br)ccc3-2)c2cc(Br)ccc2-c2ccc(Br)cc21	inactive: > 100 µM
COc1ccc2cc(CNCCCCCCNC(=O)Nc3cccc4ccccc34)ccc2c1	inactive: > 100 µM
C#CCOCn1cnc2ncnc(Cl)c21	inactive: > 100 µM
CC1(C)OB(O)OC1(C)C	inactive: > 100 µM
O=C(N/N=C\c1ccc(Cl)cc1)Nc1cccc2ccccc12	inactive: 5.93 µM
CCCCCCC(=O)O[C@H]1CC[C@H]2[C@@H]3CCC4C/C(=N/NC(=O)c5cccc6c(=O)c7ccccc7[nH]c56)C=C(C)[C@]4(C)[C@H]3CC[C@]12C (stereo partly specified)	inactive: > 25 µM
Nc1ncnc2c1ncn2C1OC(COP(=O)(O)CP(=O)(O)O)C(O)C1O (stereo unspecified)	inactive: > 100 µM
NCC(=O)Nc1ccc(Cl)cc1C(=O)c1ccc[nH]1	inactive: 97.1 µM
CCc1n[nH]c(=O)n1/N=C/c1c(O)ccc2ccccc12	inactive: > 100 µM
COC(=O)c1ccc(C=C(C#N)C#N)cc1	inactive: > 100 µM
COC(=O)C(C(=O)C(N)=O)c1csc(-n2nc(-c3ccccc3)cc2-c2ccccc2)n1 (stereo unspecified)	inactive: > 31.6 µM
CCCCCCCCCC1(N=[N+]=[N-])C(=O)c2ccccc2N(C)C1=O (stereo unspecified)	inactive: > 100 µM
CC(C)(C)OC(=O)Nc1nnc(S(N)(=O)=O)s1	inactive: > 100 µM
COc1ccc2c(c1)[nH]c1c3ccc(OC)cc3oc(=O)c21	inactive: > 100 µM
CCOC(=O)CCC(NC(=O)c1ccc(Oc2nc3c(N)cc(C(F)(F)F)cc3nc2-c2ccccc2)cc1)C(=O)OCC (stereo unspecified)	inactive: 49.1 µM
COC1(c2ccc(Cl)cc2)SC=C(C)n2c1noc2=O (stereo unspecified)	inactive: > 100 µM
N=C(N)N/N=C\c1c(-c2ccccc2)nc2sccn12	inactive: 17.4 µM
CNC(=O)NC(CCCCNC(=O)OCc1ccccc1)C(=O)OCc1ccccc1 (stereo unspecified)	inactive: > 100 µM
OC1C=C2C3CN(Cc4cc5c(cc43)OCO5)[C@H]2C[C@@H]1O (stereo partly specified)	inactive: 5.26 µM
O=C(Nc1c(Cl)cc([N+](=O)[O-])cc1Cl)C(=O)C(C(=O)c1ccncc1)C1OC(=O)c2ccccc21 (stereo unspecified)	inactive: > 100 µM
COc1c(OC)c(OC)c(-c2cc(=O)c3c(OC)c(OC)c(OC)c(OC)c3o2)c(OC)c1OC	inactive: 35.4 µM
COc1c(C)cc2c(c1O)C1NC(C2)[C@H](O)N2C3COC(=O)[C@@]4(CS[C@@H](c5c(OC(C)=O)c(C)c6c(c53)OCO6)C12)NCCC1=C4NC2C=CC=CC12 (stereo partly specified)	active: < 0.01 µM

SMILES	GI50
COc1cc(C2SCC(=O)N2c2ccc(NC(=O)c3ccc(N4C(=O)CSC4c4cc(OC)c(OC)c(OC)c4)cc3)cc2)cc(OC)c1OC (stereo unspecified)	inactive: > 100 µM
NC(Cc1cc(I)c(O)c(I)c1)C(=O)O (stereo unspecified)	inactive: > 500 µM
CC(C)(C)c1cc(C(P(=O)(O)O)P(=O)(O)O)cc(C(C)(C)C)c1O	inactive: > 100 µM
CCCCCC(=O)OC[n+]1ccc2c(C)c3[nH]c4ccccc4c3c(C)c2c1	active: 0.971 µM
O=C1CCC[C@]2(CCCC(=O)N2)C1	inactive: > 100 µM
O=c1[nH]c(=O)n(COCc2ccccc2)c2ccc([N+](=O)[O-])cc12	inactive: > 100 µM
CC(C)CCCC(C)[C@H]1CC[C@H]2N/C(=N/c3ccccc3)CCC[C@]12C (stereo partly specified)	inactive: 6.81 µM
CN(C)c1ncnc2c1ncn2CCn1cnc2c(N(C)C)ncnc21	inactive: > 100 µM
CC(=O)c1cccc(Nc2nc3ccccc3c3occc23)c1	inactive: 25.5 µM
CCNC(=O)COc1ccc(Cl)c(C)c1	inactive: > 100 µM
COc1ccc([N+](=O)[O-])c2c(NCCCN(C)C)ccnc12	inactive: 15.6 µM
CCOC(=O)CC(NC(=O)c1ccc(/N=N/N(C)C)cc1)C(=O)OCC (stereo unspecified)	inactive: > 100 µM
Nc1nc(Cl)c2ncn(CCCC(c3ccccc3)P(=O)(O)O)c2n1 (stereo unspecified)	inactive: > 100 µM
CC1=CC(N2C(=O)C(C)=CC2O)NC1=O (stereo unspecified)	inactive: > 10 µM
NCCNc1ncnc2ccc(Cl)cc12	inactive: 96.2 µM
CC(=N\N=C\c1ccccn1)/C(C)=N/N=C/c1ccccn1	inactive: > 100 µM
Cc1cc2nc3c(=O)[nH]c(=O)nc-3n(CC(O)C(O)C(O)CO)c2cc1N (stereo unspecified)	inactive: > 100 µM
COc1ccc(OC)c(C23CCCC(C2)N(C)CC3)c1 (stereo unspecified)	inactive: 46.8 µM
NC(=O)NC(=O)c1ccc(NC(=O)CBr)cc1	inactive: 6.87 µM
CCC(C)C1=C(O)[N+]2([O-])Oc3ccc(-c4c(O)c(O)c(-c5ccc(OC(C)=O)cc5)c(OC(C)=O)c4OC(C)=O)cc3OC2(C(C)CC)C(=O)N1O (stereo unspecified)	inactive: > 50 µM
COc1ccccc1C(O)[C@@H]1C[C@@H]2[C@H]3CC[C@@](C)([C@@H]2O1)C3(C)C (stereo partly specified)	inactive: 22.1 µM
COc1ccc(-c2nc(-c3cnccn3)n(C/C=C/c3ccccc3)n2)cc1	inactive: > 100 µM
CCn1c(SCC(=O)N/N=C/c2ccccc2)nc2ccccc2c1=O	inactive: 45.9 µM

SMILES	GI50
C(=N\CC/N=C/c1cccc2ccccc12)/c1cccc2ccccc12	inactive: > 100 µM
Cc1c(Cl)cccc1NC(=O)C(=O)C(C(=O)c1ccccc1-c1ccccc1)C1OC(=O)c2ccccc21 (stereo unspecified)	inactive: 19.5 µM
Cc1ccc(-c2nc3cc(Cl)ccc3[nH]2)cc1	inactive: > 100 µM
Cc1c(O)c(OC2OC(CO)C(O)C(O)C2O)cc2c1CC[C@@H]1C2(C)C(=O)C[C@]2(C)[C@@H]([C@@](C)(O)C(O)CCC(C)(C)O)[C@H](O)C[C@@]12C (stereo partly specified)	inactive: > 100 µM
Cc1cc(C)c2c(=N)c3ccccc3n(CCCCCCCCn3c4ccccc4c(=N)c4c(C)cc(C)nc43)c2n1	inactive: 1.12 µM
COc1cc2c(c(OC)c1OC)-c1cccc(=O)cc1C(NC(C)=O)CC2 (stereo unspecified)	active: 0.207 µM
Nc1nc2cc(CNc3ccc(C(=O)NC(CCC(=O)O)C(=O)O)cc3)ccc2nc1-c1ccccc1 (stereo unspecified)	inactive: > 10 µM
BrC(c1cccc2ccccc12)c1cccc2ccccc12	inactive: 21.6 µM
CCOC(=O)C(/C(=N\NC(=O)OC)C(=O)Nc1cc(OC)ccc1OC)c1cnc2ccccc2n1 (stereo unspecified)	inactive: > 100 µM
C[Si]12OCCCN(CCO1)CCO2	inactive: > 100 µM
CCOC(=O)C1CC(C(=O)c2ccccc2)N2c3ccccc3-c3ccccc3C12 (stereo unspecified)	inactive: > 100 µM
COc1cc(/C=C2\N=C(c3ccccc3)N(C3Nc4cc5c(cc4S3)NC(N3C(=O)/C(=C/c4cc(OC)c(OC)c(OC)c4)N=C3c3ccccc3)S5)C2=O)cc(OC)c1OC (stereo unspecified)	inactive: > 100 µM
O=C1Nc2cc([N+](=O)[O-])ccc2N/C1=C/C(=O)c1ccc(Cl)cc1	inactive: 14.2 µM
Nc1ccc(N)c2c1C(=O)c1c(N)ccc(N)c1C2=O	inactive: > 73.1 µM
Cc1ccc2c(c1)C(=O)N1CCC[C@H]1C=N2	inactive: 32.8 µM
O=C(O)C(=Cc1ccc(-c2ccccc2)cc1)C(=O)O	inactive: > 41.1 µM
COP(=O)(OC)C(=O)N1N(c2ccc([N+](=O)[O-])cc2)C(=O)C(C)NC1(NNc1ccc([N+](=O)[O-])cc1)P(=O)(OC)OC (stereo unspecified)	inactive: > 100 µM
O=C(O)/C=C(/CC(=O)O)C(=O)O	inactive: 25.7 µM
CCN(CC)CCCC(C)Nc1ccnc2cc3ccccc3cc12 (stereo unspecified)	inactive: 2.65 µM
CC(C)=C/C=C1/CS(=O)(=O)C=C1C	inactive: > 100 µM
COc1ccc(-c2cc(=O)c3c(O)c(OC)c(OC)c(OC)c3o2)cc1 [GARDENIN B]	inactive: > 100 µM
COc1ccc(NC(/C(C(=O)c2ccccc2)=C(\O)C(=O)/C=C(\O)c2ccccc2)c2ccc(OC)cc2)cc1 (stereo unspecified)	inactive: 40.7 µM
